In publication PMC6380343 one finds binding data, which are given here for three molecules.

These are yes or no findings as the source states them, for the method shown. For some of these results: Binding seen in cells or lysates may run through a third protein. Some entries that bind do so weakly or less than the wild type. Where a sequence is shown, tags or fusion partners need not be part of it.

One assay deals with T1, GST-tagged NOB1 (human) (UniProt Q9ULX3).
T1 sequence: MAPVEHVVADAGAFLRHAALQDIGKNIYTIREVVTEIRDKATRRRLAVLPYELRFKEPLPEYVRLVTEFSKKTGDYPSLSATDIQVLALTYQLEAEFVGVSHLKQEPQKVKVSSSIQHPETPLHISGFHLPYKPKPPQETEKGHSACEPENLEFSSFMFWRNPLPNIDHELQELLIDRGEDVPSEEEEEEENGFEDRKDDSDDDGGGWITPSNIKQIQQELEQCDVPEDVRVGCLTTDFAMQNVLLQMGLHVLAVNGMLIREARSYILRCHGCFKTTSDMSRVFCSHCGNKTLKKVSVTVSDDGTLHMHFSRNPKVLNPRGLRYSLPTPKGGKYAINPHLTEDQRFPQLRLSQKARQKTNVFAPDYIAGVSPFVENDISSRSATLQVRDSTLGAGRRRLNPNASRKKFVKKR
The experiment in a line: pull-down; 50 ng GST-tagged bait with equal amounts of His-tagged or untagged prey; 50 mM Tris-HCl pH 8.0, 10% glycerol, 300 mM NaCl, 5 mM MgCl2, 0.1% Tween20; 1 h at 4°C; glutathione sepharose; western blotting; both purified. (In general: In western blotting, separated proteins are transferred to a membrane and probed.)

Assay [1] deals with T2, GST-tagged ENP1 (human), Q13895.
T2 chain: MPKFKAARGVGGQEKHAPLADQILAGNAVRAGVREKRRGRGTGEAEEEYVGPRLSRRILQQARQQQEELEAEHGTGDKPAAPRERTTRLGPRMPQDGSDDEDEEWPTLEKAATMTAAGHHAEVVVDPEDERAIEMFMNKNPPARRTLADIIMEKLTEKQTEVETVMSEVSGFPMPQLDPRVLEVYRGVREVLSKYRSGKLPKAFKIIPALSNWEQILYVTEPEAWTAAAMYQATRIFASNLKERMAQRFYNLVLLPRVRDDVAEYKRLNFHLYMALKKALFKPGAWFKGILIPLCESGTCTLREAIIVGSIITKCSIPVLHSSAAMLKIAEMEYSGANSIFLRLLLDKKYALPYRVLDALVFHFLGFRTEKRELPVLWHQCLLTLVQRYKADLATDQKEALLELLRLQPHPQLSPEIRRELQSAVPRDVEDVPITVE
Described as above. The following applies: remark: other sources report otherwise.

Assay [2] has as its target T3, FLAG-tagged NOB1 (human) (UniProt Q9ULX3).
T3 sequence: T1 sequence
As to the kind of experiment: co-IP; whole cell extracts (sonication) of HEK293 cells expressing the FLAG-tagged bait at endogenous levels; anti-FLAG antibody coupled to protein G sepharose, non-antibody-bound beads as control; eluates western blotted for endogenous proteins.

Assay [3] addresses T3, FLAG-tagged NOB1 (human). The experiment in a line: condition: only after treatment of the cells with 0.1 μg/μl actinomycin D; co-IP; as the anti-FLAG immunoprecipitation, but cells treated with 0.1 μg/μl actinomycin D (2 h by the legend, 18 h by the methods) before extract preparation; blot with antibody against endogenous NOB1.

B1: His-tagged NOB1 (protein, UniProt Q9ULX3 1-412)
chain: T1 sequence
B1: in the assay with GST-tagged NOB1 (human), the binding result is “binds weakly”.

B2: His-tagged NOB1, Q9ULX3 1-412 (protein)
chain: T1 sequence
For the molecule B2, in assay [1], the binding entry was “no binding”.

B3: endogenous NOB1 (protein, UniProt Q9ULX3 1-412)
chain: T1 sequence
In the case of B3, the binding entry was “binds” with FLAG-tagged NOB1 (human) [2] and “no binding” with FLAG-tagged NOB1 (human) [3].
